Results from PubChem BioAssay AID686970 (National Center for Advancing Translational Sciences (NCATS), 2013).
Screen size: about 360,000 compounds; about 6,000 (1.7%) were called active. The shares of active, inactive and inconclusive entries below differ from those in the screen. Calls follow the shape of the dose curve; as a rule, active = well fitted cell-killing curve with a large enough effect; inconclusive = small, poorly fitted or top-dose-only effect, or effect the other way; inactive = flat fitted curve, though single readings scatter. No potency is given beside an inconclusive call; the fits are too rough.

Assay: qHTS for induction of synthetic lethality in tumor cells producing 2HG: qHTS for the HT-1080-NT fibrosarcoma cell line;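 also: NT is the 2HG producing partner of a matched IDH1 knockdown line; nearly all actives have a fitted effect of over 55% in size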;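 as to activity, negative = less viability: 0% = DMSO-treated cells and -100% = media-only wells without cells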
Conditions: HT-1080-NT fibrosarcoma viability, CellTiter-Glo ATP luminescence, 48 h; activity, negative = less viability: at 46.1 µM (top of the series) unless noted
Summary of the method: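 Luminescent CellTiter-Glo readout after 48 hours of compound exposure at 37 degrees C defined viability of HT-1080-NT cells. Activity was normalized to DMSO wells and cell-free media wells; concentration-response curves were fitted and assigned curve classes.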
Potency is read from the fitted curve at half-maximal effect; tags tell the direction and shape of the fitted curve.

Structure (SMILES) | Potency | activity, negative = less viability
CC(=O)Oc1ccc(Cl)cc1/C=C/c1ccc2ccccc2n1 | inconclusive [cytotoxic, partial curve] | 
Cc1ccc(S(=O)(=O)Nc2c(C)n(C)n(-c3ccccc3)c2=O)cc1 | inconclusive [rising, single point] | 
NCC1CCC(C(=O)Oc2ccc(CCC(=O)O)cc2)CC1 (centres undefined) |  | inconclusive: 32%
COc1cc2c(c(Br)c1N)-c1cc(Br)c(N)cc1C2=O | inconclusive [cytotoxic, single point] | 
Cc1cc(NC(=O)Nc2ccc(F)cc2F)n(C)n1 | inconclusive [cytotoxic, partial curve] | 
CCOC(=O)c1c(NC(=O)/C=C/C(=O)O)sc(C)c1-c1ccc(F)cc1 | active: 20.6 µM | 
CCN1CCCC1CNc1ncnc2c1[nH]c1ccc(F)cc12 (centres undefined) | inconclusive [cytotoxic, single point] | 
O=C1C=C(N(CCO)Cc2ccccc2)c2ccccc2C1=O | active: 8.2 µM | 
O=[N+]([O-])c1ccc(COc2ccc(-c3[nH]ncc3-c3ccccc3)c(O)c2)cc1 | inconclusive [cytotoxic, single point] | 
Cn1cc([C@@H]2C[C@H]3CN(Cc4cccc(Cl)c4)C(=O)[C@]34CCCN24)c2ccccc21 |  | inactive: -29.3%
O=C(Nc1ccccc1C1CC1)c1cccs1 |  | inconclusive: 32.4%
CCC(NC(=O)CCl)c1ccc(C)cc1 (centres undefined) | inconclusive [cytotoxic, partial curve] | 
COc1ccc(C(=O)Nc2cccc(C)n2)cc1S(=O)(=O)N1CCCc2ccccc21 | inconclusive [cytotoxic, single point] | 
Oc1c(Cl)cc(Cl)cc1CNc1nc2ccccc2[nH]1 |  | inactive: -29.9%
CCOc1ccc(N(C)S(=O)(=O)c2ccc3[nH]cc(C(=O)NCCCOC)c(=O)c3c2)cc1 |  | inactive: 1.84%
O=C(Nc1ccc(Cl)c(Cl)c1)Nc1ccc(Br)cc1F | inconclusive [cytotoxic, single point] | 
CCc1ccc(-c2cc(C(F)(F)F)n3nc(C(=O)Nc4c(C)nn(Cc5ccccc5C)c4C)cc3n2)s1 |  | inactive: 1.32%
COc1ccccc1CNS(=O)(=O)c1c(C)nc2sccn2c1=O |  | inactive: 2%
Cc1[nH]nc2c1C(c1cc(Br)cs1)C(C#N)=C(N)O2 (centres undefined) | inconclusive [cytotoxic, partial curve] | 
O=C(COC(=O)c1ccc(NS(=O)(=O)c2cccs2)cc1)NCc1ccco1 | active: 9.2 µM | 
Cc1ccc(SCc2nc3ccccc3n2CC(=O)Nc2ccc(Cl)cc2)cc1 | inconclusive [cytotoxic, single point] | 
CC(=O)Nc1ccc(NC(=O)C(C)OC(=O)c2ccc(S(=O)(=O)N3CCCCC3)cc2)cc1 (centres undefined) | active: 23.1 µM | 
Cc1cccc(C)c1NC(=O)C(Cl)C(=O)c1ccccc1 (centres undefined) | active: 16.4 µM | 
O=C(CN1CCCc2ccccc21)N/N=C/c1c(O)ccc2ccccc12 | inconclusive [cytotoxic, partial curve] | 
COc1ccc(CC(=O)NCc2ccc(-n3cccc3)cc2)cc1OC | active: 4.61 µM | 

Structure (SMILES) | Potency | activity, negative = less viability
Cc1cc(=O)[nH]c(SCC(=O)Nc2nc(-c3ccccc3)cs2)n1 |  | inactive: 2.24%
CC1(C)C(O)=C(c2nc3ccccc3[nH]2)C(=N)N1c1ccccc1 | inconclusive [cytotoxic, partial curve] | 
N#Cc1ccc(CN2CCN(CC(=O)NCCc3ccc(Cl)cc3Cl)CC2)cc1 | inconclusive [cytotoxic, single point] | 
CCN1C(=O)[C@H]2[C@@H](c3ccc(-c4cccc(Cl)c4)cc3)N[C@@](Cc3ccccc3)(C(=O)OC)[C@H]2C1=O |  | inactive: -12.1%
CC(=O)NNC(=O)CC(=O)Nc1nc(C23CC4CC(CC(C4)C2)C3)cs1 | inconclusive [cytotoxic, single point] | 
COc1ccc(CNC(=O)C2CC(c3ccccc3[N+](=O)[O-])=NO2)cc1 (centres undefined) |  | inactive: -0.987%
Cc1ccc(NC(=O)Cc2ccc(Cl)cc2)cc1S(=O)(=O)N1CCCCCC1 | inconclusive [cytotoxic, single point] | 
O=C(NC(c1ccc(Cl)cc1)c1cnccn1)C1CCN(CCCOc2ccccc2)CC1 (centres undefined) | inconclusive [cytotoxic, single point] | 
C=CCNc1nc2cc(-c3ccccc3C)sc2c(=O)n1C | active: 14.6 µM | 
Cc1noc(/C=C/c2cccnc2)c1[N+](=O)[O-] | active: 20.6 µM | 
Cc1ccccc1C(=O)N/N=C/c1ccc([N+](=O)[O-])s1 | active: 20 µM | 
CC(C)CCN1C(=O)CCC1(C)C(=O)NC1CCCCCC1 (centres undefined) |  | inactive: 17.4%
CCCn1nc(C(=O)Nc2ccc3nc(N4CCOCC4)sc3c2)ccc1=O | inconclusive [cytotoxic, single point] | 
CCN(CC)CCOc1ccc(/C(=C(\Cl)c2ccccc2)c2ccccc2)cc1 | active: 4.61 µM | 
Cc1cc(C)nc(NC(N)=NC(C)c2ccccc2)n1 (centres undefined) | inconclusive [cytotoxic, single point] | 
CCN1CCS/C1=C\C=C\C1=[N+](CC)CCS1 | active: 4.61 µM | 
c1ccc(-c2nc(-c3nccc4ccccc34)oc2-c2ccccc2)cc1 |  | inactive: -0.0683%
O=C(CSC1=Nc2ccccc2C2CC=NN12)NCc1ccco1 (centres undefined) | inconclusive [cytotoxic, single point] | 
Cc1ccc2nc(/C(C#N)=C/c3cn[nH]c3-c3ccc(F)cc3)[nH]c2c1 | inconclusive [cytotoxic, single point] | 
Oc1c(C2=NCCNC(C(F)(F)F)=C2)ccc2ccccc12 | inconclusive [cytotoxic, single point] | 
Cc1ccc(CNC(=S)Nc2ccc3c(c2)c(=O)n(C)n3Cc2cccc(C(F)(F)F)c2)cc1 | inconclusive [cytotoxic, partial curve] | 
CCN(CC)CC(=O)Nc1ccc2c(c1)Nc1ccccc1CC2 | active: 11.2 µM | 
Cc1cc(=O)[nH]c(SCC(=O)O)c1C#N |  | inactive: 13.1%
CCN1/C(=C2\OC(=S)N(C)C2=O)Sc2ccccc21 | inconclusive [rising, partial curve] | 
Cc1nc2c(OCc3ccc(F)c(F)c3)cccn2c1N(C)C(=O)CCC1CCCC1 | inconclusive [cytotoxic, single point] | 

Structure (SMILES) | Potency | activity, negative = less viability
CC(C)c1cc(C(=O)N/N=C/C(Br)=C/c2ccccc2)n[nH]1 | inconclusive [cytotoxic, partial curve] | 
O=[N+]([O-])c1ccc(S(=O)(=O)N/N=C/c2ccsc2)cc1 |  | inactive: -3.54%
O=C(Nc1cccc(-c2csc(Nc3ccc(Cl)cc3)n2)c1)c1ccccc1 | inconclusive [cytotoxic, single point] | 
CCOC(=O)C1CCCN(CC(=O)Nc2c(C(=O)OC)[nH]c3ccc(Br)cc23)C1 (centres undefined) | inconclusive [cytotoxic, single point] | 
CCn1c(C(=O)NCCCN2CCc3ccccc3C2)cc2sccc21 | active: 20 µM | 
CC1C(=O)NN=C1C(=O)N/N=C/c1ccco1 (centres undefined) |  | inactive: -3.66%
N=c1n(Cc2ccc(Cl)cc2)c2ccccc2n1CC(O)COc1ccccc1 (centres undefined) | active: 20.6 µM | 
Cc1cc(NC(=O)c2cccc(S(=O)(=O)N3c4ccccc4CC3C)c2)no1 (centres undefined) | inconclusive [cytotoxic, single point] | 
Cn1c(=O)n(Cc2ccc(Br)cc2)c2ccccc21 | inconclusive [cytotoxic, full curve, poor fit] | 
O=C(NNC1=C(C(=O)C(F)(F)F)CCC1)c1cccc(Cl)c1 | inconclusive [cytotoxic, single point] | 
Cc1ccc(OCC(=O)N/N=C/c2ccc([N+](=O)[O-])o2)cc1 | inconclusive [cytotoxic, single point] | 
COc1cc2cc(C(=O)NCCc3c[nH]c4ccccc34)c(N)nc2cc1OC | inconclusive [cytotoxic, single point] | 
Cc1sc2nc(CN3CCCC3)nc(N3CCN(S(=O)(=O)c4cccc(F)c4)CC3)c2c1C |  | inactive: -21.6%
COc1ccc(S(=O)(=O)N2CCCCCC2)cc1C(=O)N(C)CC(=O)Nc1cc(C)ccc1C |  | inactive: -0.917%
O=C(NC1CCCCC1)N1CCN(c2nc(-c3ccccc3)cs2)CC1 |  | inactive: -24.6%
Cc1ccc(S(=O)(=O)Nc2c(C)n(C)n(-c3ccccc3)c2=O)cc1C(=O)OC(C)C(=O)N(C)c1ccccc1 (centres undefined) |  | inactive: -6.84%
CC[C@]12c3[nH]c4ccc(Cl)cc4c3CCN1C(=O)[C@@H](CC(=O)NCCC1=CCCCC1)C[C@@H]2C(=O)N1CCN(C(=O)c2ccco2)CC1 | inconclusive [cytotoxic, single point] | 
COc1cc(/C=C2\SC(=Nc3ccc(O)cc3)NC2=O)cc(OC)c1OC | active: 3.66 µM | 
COC(=O)[C@@]12C[C@@H](CC(=O)N3CCOCC3)C(=O)N(CCc3ccc(OC)c(OC)c3)C1=CCC(C)(C)C2 |  | inactive: 15.3%
O=C(CN1C(=O)CCSc2ccc(S(=O)(=O)N3CCCC3)cc21)NCc1ccccc1Cl |  | inactive: 3.82%
O=C(NCc1ccc(F)cc1)C1CCN(S(=O)(=O)c2ccc(Cl)cc2)CC1 |  | inactive: -9.85%
CC(C)(c1ccccc1)c1ccc(OCC(O)CN2CCCC2)cc1 (centres undefined) | inconclusive [cytotoxic, partial curve] | 
COc1cccc(CN(C)C(=O)c2cc(S(=O)(=O)N3CCN(c4ccccc4)CC3)ccc2Cl)c1 |  | inactive: -1.32%
COc1ccc(C(=O)O/N=C(\N)c2ccccn2)cc1 | active: 13 µM | 
